Lines with a small IC50 respond at low doses; fits outside the tested doses are given as limits. AUC is the area under the same curve over the 256-fold range up to the top dose, as a fraction: 1 means no effect, lower means more sensitive. A top dose marked as inferred was derived from the fitted curves, not read from the paper.

Compound in one assay: CC(C)=CC[C@@H](O)C1=CC(=O)c2c(O)ccc(O)c2C1=O [Shikonin]
In words: Viability of human cancer cell lines after 72 h of drug (GDSC screen). The following applies: top dose 16 µM; top dose inferred. The method, then: (§1)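 Human cancer cell lines in 384-well plates, medium with 10% serum, drug for 72 h over a 256-fold dose range (nine 2-fold or five 4-fold steps up to the top dose). Adherent lines were fixed and stained with the nucleic acid dye Syto60, suspension lines read with resazurin; signal relative to control wells, capped at 0 and 100%. One two-parameter sigmoid per drug and line, fitted in a mixed model over all curves with the slope shared within a line.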
Consider SH-4 (melanoma, adherent), for which the AUC worked out at 0.379 and the half-inhibitory concentration (IC50) (as a rule, the concentration at which inhibition is half-maximal) worked out at 0.387 µM.

Regarding SIMA (neuroblastoma, adherent), the AUC amounted to 0.684 and the 50% inhibitory concentration (IC50) amounted to 3.51 µM.

As to SJSA-1 (bone, adherent), the AUC was 0.673 and the 50% inhibitory concentration (IC50) was found to be 3.25 µM.

For SK-LMS-1 (soft tissue, adherent), the AUC is 0.191 and the 50% inhibitory concentration (IC50) is 0.127 µM.

For the cell line SK-MEL-1 (melanoma, suspension), the AUC is 0.754 and the IC50 came to 4.74 µM.

In the case of SK-MEL-2 (melanoma, adherent), the AUC stood at 0.648 and the IC50 stood at 2.61 µM.

Consider SK-MM-2 (myeloma, suspension), for which the AUC is 0.379 and the IC50 was 0.458 µM.

SK-PN-DW (Ewing sarcoma, adherent): the AUC came to 0.221 and the IC50 stood at 0.147 µM.

SLVL (B-cell lymphoma, suspension): the AUC worked out at 0.409 and the IC50 amounted to 0.554 µM.

With SNB75 (glioma, adherent), the AUC came to 0.516 and the half-maximal inhibitory concentration (IC50) is 1.13 µM.

With SR (lymphoid neoplasm, suspension), the AUC worked out at 0.194 and the IC50 came to 0.139 µM.

Turning to SW684 (fibrosarcoma, adherent), the AUC worked out at 0.51 and the IC50 worked out at 1.08 µM.

TE-1 (oesophagus, adherent): the AUC is 0.716 and the concentration for half-maximal inhibition (IC50) is 4.86 µM.

As to TE-5 (oesophagus, adherent), the AUC was found to be 0.517 and the concentration for half-maximal inhibition (IC50) is 1.12 µM.

TE-8 (oesophagus, adherent): the AUC was 0.473 and the half-maximal inhibitory concentration (IC50) worked out at 0.842 µM.

Take TE-9 (oesophagus, adherent): the AUC came to 0.349 and the IC50 turned out to be 0.375 µM.

Turning to TE-12 (oesophagus, suspension), the AUC is 0.532 and the concentration for half-maximal inhibition (IC50) was found to be 1.24 µM.

TGBC1TKB (biliary tract, adherent): the AUC is 0.591 and the half-inhibitory concentration (IC50) was found to be 1.77 µM.

Regarding TGW (neuroblastoma, adherent), the AUC stood at 0.389.

Take TK10 (kidney, adherent): the AUC came to 0.505 and the IC50 was 1.04 µM.

Compound in another assay: CCNc1cc(NC2CCC(O)CC2)nc(Nc2ccc3c(ccn3Cc3ccccc3)c2)n1 [CGP-082996 (CINK4)]
The assay is described as above. The following applies: top dose 5.12 µM; top dose inferred. The method, then:
as §1
For the cell line SH-4 (melanoma, adherent), the AUC stood at 0.778 and the half-maximal inhibitory concentration (IC50) is 3.39 µM.

On to SIMA (neuroblastoma, adherent), for which the AUC was determined as 0.939 and the IC50 is greater than 5.12 µM.

For SJSA-1 (bone, adherent), the AUC came out at 0.966 and the IC50 was greater than 5.12 µM.

As to SK-LMS-1 (soft tissue, adherent), the AUC was 0.968 and the IC50 was greater than 5.12 µM.

Turning to SK-MEL-1 (melanoma, suspension), the AUC is 0.948 and the IC50 was greater than 5.12 µM.

Consider SK-MEL-2 (melanoma, adherent), for which the AUC was determined as 0.98 and the IC50 was greater than 5.12 µM.

As to SK-MM-2 (myeloma, suspension), the AUC was 0.974 and the IC50 is greater than 5.12 µM.

As for SK-PN-DW (Ewing sarcoma, adherent), the AUC was 0.983 and the concentration for half-maximal inhibition (IC50) was greater than 5.12 µM.

SLVL (B-cell lymphoma, suspension): the AUC came to 0.961 and the IC50 is greater than 5.12 µM.

As for SNB75 (glioma, adherent), the AUC is 0.861 and the IC50 is greater than 5.12 µM.

Regarding SR (lymphoid neoplasm, suspension), the AUC turned out to be 0.871 and the half-maximal inhibitory concentration (IC50) stood at 4 µM.

On to SW684 (fibrosarcoma, adherent), for which the AUC is 0.981 and the IC50 is greater than 5.12 µM.

As for TE-1 (oesophagus, adherent), the AUC is 0.908 and the IC50 is greater than 5.12 µM.

Consider TE-5 (oesophagus, adherent), for which the AUC was found to be 0.967 and the IC50 is greater than 5.12 µM.

With TE-8 (oesophagus, adherent), the AUC is 0.896 and the IC50 was greater than 5.12 µM.

Consider TE-9 (oesophagus, adherent), for which the AUC turned out to be 0.943 and the half-maximal inhibitory concentration (IC50) is greater than 5.12 µM.

Turning to TE-12 (oesophagus, suspension), the AUC amounted to 0.785 and the IC50 was 2.72 µM.

With TGBC1TKB (biliary tract, adherent), the AUC came to 0.843 and the concentration for half-maximal inhibition (IC50) is 3.6 µM.

Regarding TGW (neuroblastoma, adherent), the AUC is 0.963 and the half-inhibitory concentration (IC50) is greater than 5.12 µM.

For the cell line TK10 (kidney, adherent), the AUC turned out to be 0.883 and the concentration for half-maximal inhibition (IC50) was greater than 5.12 µM.

Compound in a further assay: CNC(=O)c1ccc(Nc2cc(Nc3ccccc3S(=O)(=O)C(C)C)c3cc[nH]c3n2)nc1 [HG-5-113-01]
Described as above. The following applies: top dose 10 µM; top dose inferred. The method, then:
as §1
Regarding SH-4 (melanoma, adherent), the AUC turned out to be 0.685 and the concentration for half-maximal inhibition (IC50) was found to be 2.76 µM.

Turning to SIMA (neuroblastoma, adherent), the AUC came to 0.795 and the half-maximal inhibitory concentration (IC50) amounted to 5.34 µM.

On to SJSA-1 (bone, adherent), for which the AUC was found to be 0.854 and the IC50 was 9.57 µM.

Take SK-LMS-1 (soft tissue, adherent): the AUC is 0.715 and the 50% inhibitory concentration (IC50) worked out at 2.45 µM.

Consider SK-MEL-1 (melanoma, suspension), for which the AUC was determined as 0.91 and the IC50 is greater than 10 µM.

For SK-MEL-2 (melanoma, adherent), the AUC is 0.617 and the IC50 was determined as 1.33 µM.

In the case of SK-MM-2 (myeloma, suspension), the AUC was 0.807 and the IC50 came out at 5.41 µM.

Regarding SK-PN-DW (Ewing sarcoma, adherent), the AUC stood at 0.732 and the IC50 is 2.94 µM.

For the cell line SLVL (B-cell lymphoma, suspension), the AUC was found to be 0.836 and the IC50 was 7.22 µM.

For the cell line SNB75 (glioma, adherent), the AUC was 0.811 and the IC50 amounted to 8.68 µM.

For the cell line SR (lymphoid neoplasm, suspension), the AUC amounted to 0.236 and the half-maximal inhibitory concentration (IC50) was found to be 0.118 µM.

SW684 (fibrosarcoma, adherent): the AUC was found to be 0.924 and the half-maximal inhibitory concentration (IC50) was greater than 10 µM.

Turning to TE-1 (oesophagus, adherent), the AUC was 0.722 and the concentration for half-maximal inhibition (IC50) came out at 3.21 µM.

With TE-5 (oesophagus, adherent), the AUC came out at 0.846 and the IC50 amounted to 9.01 µM.

Consider TE-8 (oesophagus, adherent), for which the AUC was determined as 0.721 and the IC50 amounted to 2.79 µM.

As for TE-9 (oesophagus, adherent), the AUC was determined as 0.757 and the concentration for half-maximal inhibition (IC50) turned out to be 3.57 µM.

In the case of TE-12 (oesophagus, suspension), the AUC was determined as 0.775 and the IC50 worked out at 4.86 µM.

On to TGBC1TKB (biliary tract, adherent), for which the AUC stood at 0.684 and the IC50 turned out to be 2.04 µM.

Take TGW (neuroblastoma, adherent): the AUC was determined as 0.807 and the half-inhibitory concentration (IC50) stood at 4.27 µM.

On to TK10 (kidney, adherent), for which the AUC is 0.763 and the half-inhibitory concentration (IC50) was found to be 4.32 µM.

Compound in another assay: COc1cc(-c2nn([C@H]3CC[C@H](N4CCN(C(C)=O)CC4)CC3)c3ncnc(N)c23)ccc1NC(=O)c1cc2ccccc2n1C [A-770041]
Described as above. Particulars: top dose 5.12 µM; top dose inferred. The method, then:
as §1
Take SH-4 (melanoma, adherent): the AUC was determined as 0.638 and the IC50 was 0.949 µM.

As to SIMA (neuroblastoma, adherent), the AUC is 0.876 and the 50% inhibitory concentration (IC50) is greater than 5.12 µM.

As to SJSA-1 (bone, adherent), the AUC was 0.945 and the half-maximal inhibitory concentration (IC50) was greater than 5.12 µM.

With SK-LMS-1 (soft tissue, adherent), the AUC turned out to be 0.883 and the IC50 was 5.01 µM.

Consider SK-MEL-1 (melanoma, suspension), for which the AUC was determined as 0.964 and the IC50 was greater than 5.12 µM.

Values taken from the supplement of paper PMC4967469.
